Data taken from PMC12136788.
The other results are listed elsewhere or left out.

T1: UNK ZnF1-6 (called full-length) (human, UniProt Q9C0B0 30-357)
T1 sequence: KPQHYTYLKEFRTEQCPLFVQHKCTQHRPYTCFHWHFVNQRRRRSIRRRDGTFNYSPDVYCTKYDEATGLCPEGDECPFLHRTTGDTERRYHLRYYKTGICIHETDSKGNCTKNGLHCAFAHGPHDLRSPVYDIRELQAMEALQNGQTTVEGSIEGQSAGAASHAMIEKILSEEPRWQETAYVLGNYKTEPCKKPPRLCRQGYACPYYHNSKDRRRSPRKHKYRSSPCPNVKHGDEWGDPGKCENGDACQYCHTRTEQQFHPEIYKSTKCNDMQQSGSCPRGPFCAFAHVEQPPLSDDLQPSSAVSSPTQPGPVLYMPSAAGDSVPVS

B1: chr8:47773456:47773635:-|3pUTR|ENSG00000253729|msi1_unk|FALSE|overlapping (ssRNA)
RNA: GGGAGUUCUACAGUCCGACGAUCGUUUUUUCCUUUCAUUUUAUUCUCUUCUAGUUUUGACAUUUUAUGAUAGAUUUGCUCUCUAGAAGGAAACGUCUUUAUUUAGGAGGGCAAAAAUUUUGGUCAUAGCAUUCACUUUUGCUACAACAGAGGAUUGAGCAUCA
B2: chr6:21598408:21598509:+|3pUTR|ENSG00000124766|msi1|FALSE|bound_elsewhere (ssRNA)
RNA: GGGAGUUCUACAGUCCGACGAUCCGUUAAGGGUUUUUGUUUUUAAACUUUUUUUUGCCAUCCAUCCUGUGCAAUAUGCCGUGUAGAAUAUUUGUCUUAAAAUUCAAGGCCACAAAAACAAUGUUUGGGGGAAAAAAAAGAAAACAACAGAGGAUUGAGCAUCA
B3: chr10:11920118:11920232:-|3pUTR|ENSG00000151461|unk|FALSE|unique (ssRNA)
RNA: GGGAGUUCUACAGUCCGACGAUCGUAGUAUAUUUAGUCGGAGAGCACAUCUGUAUGCGACAACUUGAUUACAUCUUUUUUUCUAGCUAUUUUGCAUUUUUUCUUUUACCAUGUUUCAGUUUCUGCAUGUAGAUUUAAAUAAAACAACAGAGGAUUGAGCAUCA
B4: chr2:25232207:25232317:-|3pUTR|ENSG00000119772|unk|FALSE|unique (ssRNA)
RNA: GGGAGUUCUACAGUCCGACGAUCGGUGAGGGCCCGACGGGCAGGUGCUUGCCUGGGUAGAUGGGGUGUAGAUAUGUGGCAUAUAGAGAUAUAUAUUUUAUAAUGGGAGGGGGGAUGGCACCUCCUGGGACUGGUAGAGCUGGGCAACAGAGGAUUGAGCAUCA
B5: chr8:39103990:39104232:+|3pUTR|ENSG00000168615|msi1|FALSE|unique (ssRNA)
RNA: GGGAGUUCUACAGUCCGACGAUCGUUUUGUCAUUAAGUGUUUAAGUGUUAUUCUGAAUUUUCUACCUUAGUUAUCAUUAAUGUAGUUCCUCAUUGAACAUGUGAUAAUCUAAUACCUGUGAAAACUGACUAAUCAGCUGCCAACAACAGAGGAUUGAGCAUCA
B6: chr10:27170558:27170670:+|CDS|ENSG00000120539|unk|FALSE|unique (ssRNA)
RNA: GGGAGUUCUACAGUCCGACGAUCCUUAUGUGUGAACUCGAUGAAGACUGUGAAAAGAAUAGUAAGAGGGACUACUUAAGUUCUAGUUUUCUAUGUUCUGAUGAUGAUAGAGCUUCUAAAAAUAUUUCUAUGAACUCUGAUUCACAACAGAGGAUUGAGCAUCA
B7: chr1:43978039:43978149:+|3pUTR|ENSG00000117410|unk|FALSE|unique (ssRNA)
RNA: GGGAGUUCUACAGUCCGACGAUCGGCCGUGCCUCACUUUUAUUUAUUGCUGGUUUUCCUGGGACAGCUGGAGCUGUGUCCCUUAGCCUUUCAGAGGCUUGGUGUUCAGGGCCCUCCCUGCACUCCCCUCUUGCUGCGUGUUGACAACAGAGGAUUGAGCAUCA
B8: chr3:62294290:62294391:+|3pUTR|ENSG00000144724|msi1|FALSE|unique (ssRNA)
RNA: GGGAGUUCUACAGUCCGACGAUCAACUAGUCCUCUAAAAAUUCCCUAUUACUCCUAUAGCAAUCUAAUAAAAACUACCUACAUAGUUACUGUUUUCUUUCCUUCUUUGCCAAAUGUUUUAUAAUAAAUCUCUUAAUUACAUACCAACAGAGGAUUGAGCAUCA
B9: chr4:48579112:48579224:-|CDS|ENSG00000075539|unk|FALSE|bound_elsewhere (ssRNA)
RNA: GGGAGUUCUACAGUCCGACGAUCCUCUAUUGCCCUAGCUCGAUAGAUUUACAAACUUUAGCAGAAUGGAACUCUUCUCCUAUUAGCCACCAGUUUGAUGUGAUUAGUCCAUCACAUAUAUGGAUAUUUGCACAUGUGACCCAACAACAGAGGAUUGAGCAUCA
B10: ENSG00000124766:be:win_3901|3pUTR|ENSG00000124766|bound_else_gene|NA|bound_elsewhere_windowed (ssRNA)
RNA: GGGAGUUCUACAGUCCGACGAUCAAUAUGCCGUGUAGAAUAUUUGUCUUAAAAUUCAAGGCCACAAAAACAAUGUUUGGGGGAAAAAAAAGAAAAAAUCAUGCCAGCUAAUCAUGUCAAGUUCACUGCCUGUCAGAUUGUUGACAACAGAGGAUUGAGCAUCA
B11: chr7:80742902:80743013:-|3pUTR|ENSG00000075223|msi1_unk|total|mutant (ssRNA)
RNA: GGGAGUUCUACAGUCCGACGAUCUCAGAGUCACAGUUCCCUUUAUUUCACAUAAGCCCAAACUGACCGACAGUAACGGUGUUCCGUUUUAUACUAUAUUUGUGCUAUUUAAUUCUUUCUAUUUUCACAAUUAUUAAAUUGUGUCAACAGAGGAUUGAGCAUCA
B12: chr9:95099063:95099164:-|3pUTR|ENSG00000158169|unk|FALSE|unique (ssRNA)
RNA: GGGAGUUCUACAGUCCGACGAUCGAGCGCCCCUCCAACCAGGCUGUUAUUCCCCUGGACUCCGUGACAUCUGUGGAAUUUUUUAGCUCUUUAAAAUCUGUAAUUUGUUGUCUAUUUUUUCAUUCUAAAUAAAACUUCAGUUUGCAACAGAGGAUUGAGCAUCA
B13: chr11:112085977:112086295:-|three_prime_utr|ENSG00000150779|control|control|control (ssRNA)
RNA: GGGAGUUCUACAGUCCGACGAUCUCACCCCACUGCCUCACUGGAUUGUGAGGAUCAUAUGCGACAAUGUAUUUGAAAACGACUAGAACAUUAUCGGAGGAAGGUGGACUCUGAAGUAGUCGCUGUAGACUAUGGAUGUAGAACCAACAGAGGAUUGAGCAUCA
B14: chr12:109554177:109554278:-|3pUTR|ENSG00000139428|unk|FALSE|unique (ssRNA)
RNA: GGGAGUUCUACAGUCCGACGAUCUUGCUAUGUGCAGUGCCCUGAGCCAAGUGUUCCACAGACAUUAUCUCAUUUGAACCCCAUAGCAGCCCUGGAAGGAGGCAUUGGGUGGGGAACCAAGUUGUCCUGGGGAGUCAGUGCCAACAACAGAGGAUUGAGCAUCA

Molecular target: T1, UNK ZnF1-6 (called full-length)
Experiment: nsRBNS (natural sequence RNA bind-n-seq); RBNS binding buffer (assumed for nsRBNS): 25 mM Tris pH 7.5, 150 mM KCl, 3 mM MgCl2, 0.01% Triton X-100, 500 ug/ml BSA, 20 U/ml SUPERase-In, 4 C; UNK is unkempt and MSI1 is Musashi-1; names of the RNAs are library labels; protein concentration not given here; high values mean tight binding

Binder | binding signal [enrichment R]
B1 | 5.42
B2 | 0.596
B3 | 21.9
B4 | 5.83
B5 | 0.546
B6 | 0.578
B7 | 0.892
B8 | 68.7
B9 | 1.85
B10 | 0.572
B11 | 1.71
B12 | 2.25
B13 | 0.779
B14 | 0.911
